Results on 41 molecules are retold here after ChEMBL document CHEMBL4888484, “Replenishing the malaria drug discovery pipeline: Screening and hit evaluation of the MMV Hit Generation Library 1 (HGL1) against asexual blood stage Plasmodium falciparum ,using a nano luciferase reporter read-out” (2022).

Screen size: about 150,000 compounds; about 540 (0.36%) showed an effect of 50% or more. This is one part of the list.

Usually % Inhibition stands for the relative decrease from the control value, in per cent.

For this experiment, the system named is Plasmodium falciparum. As to the kind of experiment: Primary screen in NF54 nanoGlo assay, in single point, at 2uM, 72h; a lower Z score goes with more inhibition. The conditions noted are these: timepoint 72 hour. Type of experiment: functional, Erythrocyte.
On to `Cc1sc2ncnc(N3CCc4[nH]cnc4C3)c2c1C`, for which the “% Inhibition” value is recorded as -17% and the Z score is 2.17.
The corresponding values for `CCc1ccc(-n2c(C)cc(C(=O)Cn3c(C)cc(COC)c(C#N)c3=O)c2C)cc1` are -8% and 0.86.
For `O=C(Nc1ccc(-n2cccn2)c(Cl)c1)NC1CCC(O)CC1` (configuration not stated) the same measures were -8% and 1.67.
Consider `CC(=O)N1CCCC1C1CCCN1c1ncccc1C#N` (configuration not stated), for which the “% Inhibition” value is given as -9% and the Z score is listed as 1.63.
The corresponding values for `COCc1nnc(N2CCC(Oc3cccc(C#N)c3)CC2)n1CC(C)C` are -18% and 2.84.
For `COc1ccc(S(=O)(=O)N(CC(=O)N2CCc3sccc3[C@@H]2COc2ccc(Cl)c(C)c2)C(C)C)cc1` the same measures were -14% and 1.28.
For the molecule `O=C(c1noc2c1CCCC2)N1CCN(c2cccc(Cl)c2)CC1`, the “% Inhibition” value amounted to 2% and the Z score was -0.34.
As for `CC(=O)NCCc1csc(C2CCN(C(=O)NCc3cccc(F)c3)CC2)n1`, the “% Inhibition” value was determined as 3% and the Z score is given as -0.5.
For `COc1cc(OC)cc(-n2c(CCC(=O)NCCOc3ccccc3)cc3c2-c2ccccc2CC3)c1` the same measures were -18% and 1.59.
For `Cc1cc(OC2CCN(C(=O)CN3C(=O)CCC3=O)CC2)nc(C)n1` the same measures were -7% and 1.4.
For `CCCC1(CO)CCN(CC[C@H]2CC2(F)F)CC1` the same measures were -5% and 0.83.
`Cc1nc(CN(C)C(=O)C2(c3ccccc3)CCOCC2)no1`: the “% Inhibition” value was -8% and the Z score is 1.46.
The corresponding values for `CCc1n[nH]cc1C(=O)NC1(COC)CCCC1` are -5% and 0.94.
For `O=C(N1CCC(CCO)C1)[C@]12CCC[C@H]1CN(Cc1ccccc1)C2` (some centres not stated) the same measures were -22% and 2.8.
Take `c1cnc(N[C@H]2CCC[C@H]2Cn2ccnn2)nc1`: the “% Inhibition” value is -3% and the Z score is reported as 0.51.
For `Cc1nc(-c2cc3cccc(C)c3nc2NCCc2ccccn2)no1` the same measures were -10% and 1.84.
The corresponding values for `CC(=O)Oc1c(-c2ccc(NC(=O)c3ccccc3)cc2)c(-c2cccc(C)c2)nn1-c1cccc(F)c1` are 3% and -0.37.
For the molecule `Cc1ccc(C)c(OCCN(C)CCn2nccc2C)c1`, the “% Inhibition” value came out at 4% and the Z score is reported as -0.71.
The corresponding values for `CCN1C(=O)[C@@]2(c3ccccc31)[C@@H]1C(=O)N(Cc3ccccc3)C(=O)[C@@H]1[C@@H]1CCCN12` are -9% and 1.2.
The corresponding values for `O=c1[nH]c2c(cnn2Cc2ccccc2)c(O)c1-c1nc(-c2ccc(F)cc2)no1` are -10% and 1.05.
For `COc1nc(NCCCOC2CCCC2)ncc1F` the same measures were -9% and 1.07.
Turning to `O=C(Cn1c(=O)n(CC2CC2)c2ccc(C(=O)O)cc21)NCc1cccs1`, the “% Inhibition” value is reported as -9% and the Z score is recorded as 1.53.
On to `CC1CCCN(C(=O)NC(c2ccccc2)c2cc3ccccc3o2)C1` (configuration not stated), for which the “% Inhibition” value came to 0% and the Z score is given as 0.02.
For `O=C(NC[C@@]12CCCC=C1N(CC1CC1)C(=O)CC2)c1ccc2ccccc2n1`, the “% Inhibition” value is recorded as -15% and the Z score came out at 2.2.
The corresponding values for `C[C@H]1CN(Cc2ccccc2C(=O)O)C[C@]1(O)C1CC1` are 5% and -0.79.
As for `CC(C)CN1CCN([C@H]2CCOC3(CCN(C(=O)CCc4ccccc4)CC3)C2)CC1`, the “% Inhibition” value is listed as -28% and the Z score worked out at 2.96.
The corresponding values for `COc1ccccc1N1CC[C@H](N2CCc3nc[nH]c3C23CCOCC3)C1=O` are 1% and -0.1.
On to `Cc1nc2c(c(=O)n1CC(=O)Nc1ccc(F)cc1Cl)CN(Cc1ccccc1)CC2`, for which the “% Inhibition” value is -2% and the Z score came out at 0.3.
The corresponding values for `Cc1nccn1C1CN(C(=O)[C@H](C)Oc2ccccc2)C1` are -14% and 1.79.
The corresponding values for `CNC(=O)[C@@H]1CN(C(=O)c2ccccn2)C[C@H]1COC` are -3% and 0.46.
For `Cc1nn(C)c(C)c1CN(C)c1cc(C2CC(N)C2)nc(C2CC2)n1` (configuration not stated) the same measures were 8% and -1.35.
With `Cc1ccc(CNC(=O)CNC(=O)c2cscn2)nc1C`, the “% Inhibition” value is on record as 31% and the Z score is recorded as -3.52.
For `Cc1ccccc1C(=O)N1CCC[C@H](Oc2ncccn2)C1` the same measures were 2% and -0.31.
The corresponding values for `CC(C)=CCN1CCN(C(=O)c2cc3ccccc3[nH]2)[C@H]2CS(=O)(=O)C[C@H]21` are -9% and 1.79.
For `O=C(Nc1ccc(F)c(Cl)c1)N1CCC[C@H](Cn2c(C3CC3)nc3cccnc32)C1` the same measures were 2% and -0.37.
On to `Cc1c(C(=O)N[C@H]2CCCc3ccccc32)sc2ncnc(N3CCCCCC3)c12`, for which the “% Inhibition” value is reported as -19% and the Z score is 1.78.
For `O=C(c1ccc(N2CCCC2=O)cc1)N1CCC[C@H](c2nc3ccccc3s2)C1` the same measures were -24% and 3.46.
`Cc1ccc(C(=O)N[C@@H](C)c2ncc(C(=O)O)s2)s1`: the “% Inhibition” value was found to be 1% and the Z score is given as -0.24.
For `Cc1cc(-c2nc3cccnc3s2)ccc1NS(=O)(=O)c1c(C)n[nH]c1C` the same measures were -8% and 1.46.
For `Cn1nccc1C(=O)N1CCC[C@H](CCc2ccccc2)C1`, the “% Inhibition” value is -13% and the Z score is recorded as 2.52.
For `COCCc1nc(Cn2nccn2)n(-c2cccc3c2CCC3)n1` the same measures were -19% and 2.
